From the supplement of paper PMC8728848
The other results are listed elsewhere or left out.

Legend:
Assay in all cases: glycan array binding signal (z-score within array); higher = stronger binding
Settings in all cases: glycan notation: IUPAC condensed, linker removed
[1] = biological target: Gal(b1-4)GlcNAc(b1-3)Gal(b1-4)GlcNAc(b1-3)[Gal(b1-4)GlcNAc(b1-3)Gal(b1-4)GlcNAc(b1-6)]GalNAc
Method in brief: (§1)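 The binding signal is a Z-score computed within each array and averaged over linkers. Arrays of the same protein sequence at different concentrations or buffers were also averaged together. Data originate from 3228 arrays in the Consortium for Functional Glycomics database, kept only where the protein sequence was available.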

[2] = biological target: Gal(b1-4)GlcNAc(b1-3)Gal(b1-4)GlcNAc(b1-6)[Gal(b1-3)]GalNAc
Method in brief: as §1

[3] = biological target: Gal(b1-4)GlcNAc(b1-3)Gal(b1-4)[Fuc(a1-3)]GlcNAc(b1-3)Gal(b1-4)[Fuc(a1-3)]GlcNAc
Method in brief: as §1

[4] = biological target: Gal(b1-4)GlcNAc(b1-3)GalNAc
Method in brief: as §1

[5] = biological target: Gal(b1-4)GlcNAc(b1-3)[Fuc(a1-3)GlcNAc(b1-6)]Gal(b1-4)Glc
Method in brief: as §1

[6] = biological target: Gal(b1-4)GlcNAc(b1-3)[Gal(b1-4)GlcNAc(b1-6)]Gal(b1-4)GlcNAc
Method in brief: as §1

[7] = biological target: Gal(b1-4)GlcNAc(b1-3)[GlcNAc(b1-6)]Gal(b1-4)GlcNAc
Method in brief: as §1

[8] = biological target: Gal(b1-4)GlcNAc(b1-6)Gal(b1-4)GlcNAc
Method in brief: as §1

[9] = biological target: Gal(b1-4)GlcNAc(b1-6)GalNAc
Method in brief: as §1

[10] = biological target: Gal(b1-4)GlcNAc(b1-6)[Gal(b1-3)]GalNAc
Method in brief: as §1

[11] = biological target: Gal(b1-4)GlcNAc(b1-6)[Gal(b1-4)GlcNAc(b1-3)]GalNAc
Method in brief: as §1

Gal(b1-4)GlcNAc6P = biological target: Gal(b1-4)GlcNAc6P
Method in brief: as §1

Gal(b1-6)Gal = biological target: Gal(b1-6)Gal
Method in brief: as §1

Gal3S(b1-3)GalNAc = biological target: Gal3S(b1-3)GalNAc
Method in brief: as §1

Gal3S(b1-3)GlcNAc = biological target: Gal3S(b1-3)GlcNAc
Method in brief: as §1

[12] = biological target: Gal3S(b1-3)[Fuc(a1-4)]GlcNAc
Method in brief: as §1

Gal3S(b1-4)Glc = biological target: Gal3S(b1-4)Glc
Method in brief: as §1

Gal3S(b1-4)Glc6S = biological target: Gal3S(b1-4)Glc6S
Method in brief: as §1

Gal3S(b1-4)GlcNAc = biological target: Gal3S(b1-4)GlcNAc
Method in brief: as §1

[13] = biological target: Gal3S(b1-4)[Fuc(a1-3)]Glc6S
Method in brief: as §1

[14] = biological target: Gal3S(b1-4)[Fuc(a1-3)]GlcNAc
Method in brief: as §1

[15] = biological target: Gal3S(b1-4)[Fuc(a1-3)]GlcNAc6S
Method in brief: as §1

Gal3S4S(b1-4)GlcNAc = biological target: Gal3S4S(b1-4)GlcNAc
Method in brief: as §1

Gal3S6S(b1-4)GlcNAc = biological target: Gal3S6S(b1-4)GlcNAc
Method in brief: as §1

Gal3S6S(b1-4)GlcNAc6S = biological target: Gal3S6S(b1-4)GlcNAc6S
Method in brief: as §1

Gal4S(b1-4)GlcNAc = biological target: Gal4S(b1-4)GlcNAc
Method in brief: as §1

Gal4S6S(b1-4)GlcNAc = biological target: Gal4S6S(b1-4)GlcNAc
Method in brief: as §1

Gal6P(b1-4)GlcNAc = biological target: Gal6P(b1-4)GlcNAc
Method in brief: as §1

Gal6S(b1-3)GlcNAc = biological target: Gal6S(b1-3)GlcNAc
Method in brief: as §1

Gal6S(b1-3)GlcNAc6S = biological target: Gal6S(b1-3)GlcNAc6S
Method in brief: as §1

Gal6S(b1-4)Glc = biological target: Gal6S(b1-4)Glc
Method in brief: as §1

Gal6S(b1-4)Glc6S = biological target: Gal6S(b1-4)Glc6S
Method in brief: as §1

Gal6S(b1-4)GlcNAc = biological target: Gal6S(b1-4)GlcNAc
Method in brief: as §1

Gal6S(b1-4)GlcNAc6S = biological target: Gal6S(b1-4)GlcNAc6S
Method in brief: as §1

GalNAc(a1-3)Gal = biological target: GalNAc(a1-3)Gal
Method in brief: as §1

GalNAc(a1-3)GalNAc = biological target: GalNAc(a1-3)GalNAc
Method in brief: as §1

[16] = biological target: GalNAc(a1-3)GalNAc(b1-3)Gal(a1-4)Gal(b1-4)Glc
Method in brief: as §1

[17] = biological target: GalNAc(a1-3)GalNAc(b1-3)Gal(a1-4)Gal(b1-4)GlcNAc
Method in brief: as §1

GalNAc(b1-3)Gal = biological target: GalNAc(b1-3)Gal
Method in brief: as §1

[18] = biological target: GalNAc(b1-3)Gal(a1-4)Gal(b1-4)GlcNAc
Method in brief: as §1

[19] = biological target: GalNAc(b1-3)Gal(a1-4)Gal(b1-4)GlcNAc(b1-3)Gal(b1-4)Glc
Method in brief: as §1

[20] = biological target: GalNAc(b1-3)Gal(a1-6)Gal(b1-4)Glc
Method in brief: as §1

GalNAc(b1-3)GalNAc = biological target: GalNAc(b1-3)GalNAc
Method in brief: as §1

GalNAc(b1-3)GlcNAc = biological target: GalNAc(b1-3)GlcNAc
Method in brief: as §1

GalNAc(b1-4)Gal(b1-4)Glc = biological target: GalNAc(b1-4)Gal(b1-4)Glc
Method in brief: as §1

B1: Sebin1 (Coprinopsis cinerea), A8PEE3 (protein)
chain: MTSPFYAHIHNVQDDNTWRFTLIFANRATADEWWRAISEAPANTSIAKSITRVTPQYYTHDVNIWNIWNFFADGNIKSISERFRGRLFIVLENDRGGRGITVIPPVPIVDHVSGNWFYIRSKTAPHLFWYYDERRSSIYASKEKRTRFKISIRNPSSQTPKNAIMINTDDVTIHIKENLYVGVDNNLGHIIPTRAYRTFKFGELESGAIAGFDVVENIEERCSSTFDGASLSISGPDSSSPGEPWELV
glycan array binding signal (z-score) [1]: -0.394
glycan array binding signal (z-score) [2]: 0.258
glycan array binding signal (z-score) [3]: 0.035
glycan array binding signal (z-score) [4]: -0.497
glycan array binding signal (z-score) [5]: 0.066
glycan array binding signal (z-score) [6]: -0.435
glycan array binding signal (z-score) [7]: -0.163
glycan array binding signal (z-score) [8]: 0.135
glycan array binding signal (z-score) [9]: 0.03
glycan array binding signal (z-score) [10]: -0.028
glycan array binding signal (z-score) [11]: -0.114
glycan array binding signal (z-score) (Gal(b1-4)GlcNAc6P): 0.229
glycan array binding signal (z-score) (Gal(b1-6)Gal): 0.332
glycan array binding signal (z-score) (Gal3S(b1-3)GalNAc): -0.501
glycan array binding signal (z-score) (Gal3S(b1-3)GlcNAc): -0.287
glycan array binding signal (z-score) [12]: -0.14
glycan array binding signal (z-score) (Gal3S(b1-4)Glc): -0.544
glycan array binding signal (z-score) (Gal3S(b1-4)Glc6S): -0.211
glycan array binding signal (z-score) (Gal3S(b1-4)GlcNAc): -0.358
glycan array binding signal (z-score) [13]: 0.696
glycan array binding signal (z-score) [14]: -0.372
glycan array binding signal (z-score) [15]: 0.116
glycan array binding signal (z-score) (Gal3S4S(b1-4)GlcNAc): -0.382
glycan array binding signal (z-score) (Gal3S6S(b1-4)GlcNAc): -0.138
glycan array binding signal (z-score) (Gal3S6S(b1-4)GlcNAc6S): 0.906
glycan array binding signal (z-score) (Gal4S(b1-4)GlcNAc): -0.5
glycan array binding signal (z-score) (Gal4S6S(b1-4)GlcNAc): -0.099
glycan array binding signal (z-score) (Gal6P(b1-4)GlcNAc): -0.914
glycan array binding signal (z-score) (Gal6S(b1-3)GlcNAc): -0.146
glycan array binding signal (z-score) (Gal6S(b1-3)GlcNAc6S): -0.095
glycan array binding signal (z-score) (Gal6S(b1-4)Glc): 0.006
glycan array binding signal (z-score) (Gal6S(b1-4)Glc6S): -0.153
glycan array binding signal (z-score) (Gal6S(b1-4)GlcNAc): 0.056
glycan array binding signal (z-score) (Gal6S(b1-4)GlcNAc6S): 0.222
glycan array binding signal (z-score) (GalNAc(a1-3)Gal): -0.221
glycan array binding signal (z-score) (GalNAc(a1-3)GalNAc): -0.559
glycan array binding signal (z-score) [16]: 0.104
glycan array binding signal (z-score) [17]: -0.224
glycan array binding signal (z-score) (GalNAc(b1-3)Gal): -0.567
glycan array binding signal (z-score) [18]: 0.518
glycan array binding signal (z-score) [19]: -0.291
glycan array binding signal (z-score) [20]: -0.144
glycan array binding signal (z-score) (GalNAc(b1-3)GalNAc): -0.907
glycan array binding signal (z-score) (GalNAc(b1-3)GlcNAc): -0.459
glycan array binding signal (z-score) (GalNAc(b1-4)Gal(b1-4)Glc): 1.79
